According to PubChem BioAssay AID1159614 (National Center for Advancing Translational Sciences (NCATS), 2016):
Screen size: about 45,000 compounds; about 65 (0.1%) were called active. Calls follow the shape of the dose curve; as a rule, active = well fitted activation curve with a large enough effect; inconclusive = small, poorly fitted or top-dose-only effect; inactive = no such curve, though single readings can be large or run the other way. This is one part of the list.

target: Galactocerebrosidase (Homo sapiens) (UniProt P54803); assay: A Novel Cell-Based Assay to Identify Small Molecules for B -Galactocerebrosidase; conditions: 145M-Twi-hGALC-G270D cells (Twitcher mouse brain line with human GALC G270D), HMU-beta-Gal fluorescence, 48 h; series mostly up to 57.5 µM; activation: at the top concentration; also: 0% is about no effect; nearly all actives have a fitted effect of over 65% in size
UniProt P54803, sequence (P54803 whole entry, looked up): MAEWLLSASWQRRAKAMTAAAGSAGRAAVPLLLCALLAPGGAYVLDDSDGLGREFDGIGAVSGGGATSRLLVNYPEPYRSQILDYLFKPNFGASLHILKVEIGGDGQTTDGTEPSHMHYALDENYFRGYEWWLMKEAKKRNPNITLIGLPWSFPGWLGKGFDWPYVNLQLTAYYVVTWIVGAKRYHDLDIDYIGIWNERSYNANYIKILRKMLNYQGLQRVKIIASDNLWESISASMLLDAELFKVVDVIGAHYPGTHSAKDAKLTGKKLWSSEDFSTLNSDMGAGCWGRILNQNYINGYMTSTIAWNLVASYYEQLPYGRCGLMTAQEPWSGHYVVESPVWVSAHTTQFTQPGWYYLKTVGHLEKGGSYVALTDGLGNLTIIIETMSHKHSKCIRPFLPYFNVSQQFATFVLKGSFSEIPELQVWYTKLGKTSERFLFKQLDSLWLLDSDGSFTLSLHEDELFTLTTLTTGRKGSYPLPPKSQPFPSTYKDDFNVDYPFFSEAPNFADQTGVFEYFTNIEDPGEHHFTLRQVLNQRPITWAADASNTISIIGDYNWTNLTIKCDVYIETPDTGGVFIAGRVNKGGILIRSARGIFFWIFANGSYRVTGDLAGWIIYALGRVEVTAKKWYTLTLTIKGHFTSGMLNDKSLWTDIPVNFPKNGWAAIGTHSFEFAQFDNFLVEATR
How it was run: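 Live 145M-Twi cells (Twitcher mouse brain-derived, GALC-null) stably expressing human GALC-G270D, with a wild-type GALC line, were compound-treated. Residual GALC activity was then read as fluorescence from 0.1 mM final HMU-β-gal at pH 5.2; higher signal means activation.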

activation, inactive:
COc1cc(OC)c(NC(=O)COc2ccccc2-c2nnc(-c3ccccc3)o2)cc1Cl 16.6%, CC(=O)c1ccc(NC(=O)c2cccc(NC(=O)N3CCSc4ncccc43)c2)cc1 -5.43%, CCOCCCNC(=O)c1c(NC(=O)Cc2coc3c(C)c(C)ccc23)sc2c1CCC2 -10.9%, Cc1cc(C)cc(N(C)S(=O)(=O)c2nnc(NC(=O)COc3ccc(C)c(C)c3)s2)c1 -8.78%, CCc1ccccc1Nc1nn2c(=O)c3ccc(C(=O)NCCc4ccccc4)cc3nc2s1 -22.6%, Cc1c(Cl)cccc1NC(=O)CN1C(=O)c2ccccc2Sc2ncccc21 -8.19%, Cc1cccc(C(=O)NC2(C(F)(F)F)N=C(c3ccccc3)N(Cc3ccccc3)C2=O)c1 (stereo unspecified) -7.03%, CCCCCCCCCCCCCCCCCCO -16.9%, COc1ccc(-n2c(SCc3nc(-c4ccc(C)cc4)no3)nnc2-c2ccncc2)cc1 -14.8%, CCOc1ccc2c(c1)c(=O)c(S(=O)(=O)c1ccc(C)cc1)cn2CC(=O)Nc1ccc(C)cc1 -5.71%, COCCCN1CCc2nc(SCC(=O)Nc3ccc(C)c(Cl)c3)[nH]c(=O)c2C1 -12%, CC(=O)N1CCc2c(sc3c2c(=O)n(-c2ccccc2Cl)c(=O)n3C)C1 -13.7%, Cc1ccc(-c2c(CN3CCN(c4cc(Cl)ccc4C)CC3)csc2C)cc1 -7.05%, O=C(CSc1nc2ccccc2n1CC(=O)Nc1ccc(F)cc1F)Nc1ccc(F)cc1 -12.2%, CCn1cc(C(=O)N2CCN(c3ccccc3)CC2)c(=O)c2cc(S(=O)(=O)N(C)C3CCCCC3)ccc21 -9.94%, CC(=O)CSc1nc(-c2ccccc2)[nH]c1S(=O)(=O)c1ccc(C)cc1 -5.78%, CCOc1ccc(Sc2cc(C(=O)NCc3ccc(F)cc3)c3ccccc3n2)cc1 -3.09%, Cc1ccc2c(CNCc3cccs3)c(C(=O)O)n(Cc3ccc(F)cc3)c2c1 -18.6%, Cc1ccc2c(=O)cc(C(=O)Nc3sc4c(c3C(=O)NCc3ccco3)CCCC4)oc2c1C -11.9%, CCc1ccc(CNC(=O)c2nn(-c3ccc(C)c(C)c3)nc2CO)cc1 26.9%, CCC(C)NC(=O)Cn1ncc2c(C)n(Cc3ccc(F)cc3)c(C)c2c1=O (stereo unspecified) -7.31%, Cc1cc(=O)[nH]c2nnc(SCC(=O)Nc3cc(C(F)(F)F)ccc3Cl)n12 -8.04%, COC(=O)c1ccc(Cn2c(=O)cc(C)c3c(C)nn(C)c32)cc1 -0.623%, O=C(CN1C(=O)CCSc2ccc(S(=O)(=O)N3CCCC3)cc21)Nc1cccc(Cl)c1 -14.3%, Cc1cnc(NC(=O)C2=C(O)c3ccccc3S(=O)(=O)N2C)s1 -10.1%, CCOc1ccc(NC(=O)Nc2c(C)n(C)n(-c3ccccc3)c2=O)cc1 -9.15%
